Measured values: the supplement of paper PMC12632987
Over roughly 4,500 sequences, “median log2 fold change of GCK-ALFA target abundance (FLAG IP / Myc IP barcode read proportion)” has its median near 0.078; the lowest 2% begin near -0.6. This is one part of the list.

B1: GBRAP_43_5788 (protein)
chain: MKEIVEGTLDFAFTALETPEITDETKGKIVVDAVEFAIDEGTLTPEELKKLLEAAKKSISPEVFAKALKEILKHAKKEGAPQELIDIIEKALKEAEKEIA
B2: GBRAP_160_4537 (protein)
chain: NEKVEELLKDLDEEEEFIISLVDEVSVEELQNFIRVEVGSFILYGRELGVISDELEEKIDAIVDETIATLNANKNASVEEKKAIIKEAFEKIKEAIKESS
B3: GBRAP_160_4647 (protein)
chain: MESLKEIKEIIEEYSEIAKEYIKEGDLEGAIAAMRMMVGDVVLEADEDPKFSEEDVDELDKLGREGVEKLEAARDKSPEELIKLVEETKKELLELIEKYY
B4: GBRAP_11_2895 (protein)
chain: KKEKLEKLAELAKKAVELLEKLLKEGPENKELREELKKTIKEAEKLAKEVLDESDVELVKEILELLKKSEEDPENAEEYLKEALAFARVLEGQVLLKIEE
B5: GBRAP_52_6117 (protein)
chain: MRERLRAEVRELLELVRAGRLEEARRRARELVASIDDEELRLLAEALAELAREAAPEDLDAVWRLAEILAEEMEEAGYDEVLVDDLLARTAAALYERELA
B6: GBRAP_52_6315 (protein)
chain: MREEMLAHAQRLLELALAGKREELRAEARELVRSLSDEELLALAEALAELAKTANEEELDAIAEMVEILEEVMEEEGVDERVISEMLGIVTTALYEKELA
B7: GBRAP_128_3338 (protein)
chain: VDEERLKEVEELVEKIIKADDETAKKLAEELAELLVTLSLEEVEAAVEIIRKHIPKLTAKQLDILAEELEKKLPEFSPEKQLIISDLIVDLLNASVEKEE
B8: GBRAP_11_2692 (protein)
chain: KKEKLKKAAELAEKLAEVLERLLEEGVDNEELLEEAEKLLEELEELTKEYGDEGDRKLVEILREEWEEALEDPENAEEHVRHALAIARVLSGNYLLKIEE
B9: GBRAP_80_6820 (protein)
chain: MEEEIEAHLKEIAEIDPELAEVVARAVKIAKELGVPLEEIARLVKALAELAKLDLERARELAERLLKELEKYKAAGDREGALAEVVDATSEALLEVEKLE
B10: GBRAP_125_3033 (protein)
chain: SEEELKEALALIAKRLGLSDDDVAELVALARAHGIKGAMIALALAEGNEELADLLEKLTEEEVKEVALRLAEYLKENPDLTPEEVLEKLLEIAKEAVAKS
B11: GBRAP_184_5251 (protein)
chain: MNAFIELKVNSKEDIPKAVAEFEEFLKDHKDTVYVLLDAKNLSSEEKVELIRKIGEAAKKAGVKRLIIDILEEVDEETADKLVEAADELGIQLVLPLKEE
B12: GBRAP_80_6750 (protein)
chain: DLAALEAALDRIAALDPELGAALRAVFARLREAGVDVRVLRRTAEALLELAELDLEKARELARRLIAEATAALEAGDLEGATGLLVEAESEALLAVEELE
B13: GBRAP_186_5392 (protein)
chain: EEEEEEEEELLARLEAEYDVVIVVYLDESDSLEKKKATMDREVEAAEALARETGKRVAVLFVATADKETGEELRAHAAALDAEAAARSGVAVALHYREKP
B14: GBRAP_160_4521 (protein)
chain: SAALERAKKLLREAAERAIEMVKGETAEQRAVIVSGEFGSLAMEFAEDERFSDEMVDVVLEAEDELVDTILANPDLTDEELAKLIREAVERTEKELEKLA
B15: GBRAP_160_4420 (protein)
chain: MELIKEVEEILDETKELVVELIEEGEREEAIAALKVGAGEILLLLDEDESVSEEAREEVDKVLEETIKTFEENKDFTPEEVAELLDEAKKKILEILKKYS
B16: GBRAP_184_5164 (protein)
chain: KVLEETLKASNLAEAKEKLAKIRAAAAKTKAPLYVILELEKPEKEILKTIFAELGAILAEGLATSVTLELTSDLTEEQIDFAIKEADEAGVRLVLAIPDE
B17: GBRAP_160_4737 (protein)
chain: EEHIEELVERARKELLEALELSEGESKEEKEAIFRGAAGEVLMDFMEDPRLSDEMEDAAAEILDELVAELVAAYDASKEEKRAIVDRKVEELRDRLLALA
B18: GBRAP_128_3322 (protein)
chain: MDEARLAEAEALARAMVKASVEEARELTRRLVALLATATPEERERIAEIAEEEFKKLSAEKLEAVAETLRAERPRLDPETAEVVAGLEVEALNLAEEKEE
B19: GBRAP_125_3020 (protein)
chain: SDEEIVEDLGAIAKALGYSEEDVEEIKELARKHGIKGTLIAIALAEGWEELAELLEKLSEEEVKEVVRELAAWLKAHPDATPEEVKAKLLELAKKAVAEK

biological target: GABARAP, O95166; test: median log2 fold change of GCK-ALFA target abundance (FLAG IP / Myc IP barcode read proportion) (log2 ratio); each designed protein is fused to an ALFA-tag nanobody in HEK293 cells to bring the named protein to FLAG-tagged glucokinase (GCK); Myc marks an untargeted standard; higher = target protein stabilised (more abundant); settings: target protein: 3xFLAG-MCP-GCK-ALFA reporter; HEK293 landing pad (RPLP)
Sequence (O95166 whole entry, the tested form may be a part): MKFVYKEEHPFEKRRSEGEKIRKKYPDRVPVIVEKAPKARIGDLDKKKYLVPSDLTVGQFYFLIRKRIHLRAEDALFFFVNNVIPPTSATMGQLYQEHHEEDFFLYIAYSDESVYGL
Method in brief: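 An ALFA-nanobody-fused binder library was recombined into HEK293 landing-pad cells and induced with 2 μg mL^−1 doxycycline. Cells were transfected with a plasmid expressing a FLAG-tagged target and a Myc-tagged standard. After 48 h, lysates underwent anti-FLAG and anti-Myc immunoprecipitation, and circular RNA barcodes were reverse transcribed, amplified and sequenced. Target abundance is the per-binder median log2 ratio of FLAG to Myc barcode read proportions. Barcodes needed ≥10^−7 proportion in both replicates, binders ≥3 barcodes per replicate, and a 10^−6 pseudocount was added; the two replicates were pooled.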

Binder	median log2 fold change
B1	0.536
B2	-0.0723
B3	-0.0683
B4	0.14
B5	-0.215
B6	-0.0843
B7	0.236
B8	-0.0509
B9	0.283
B10	0.169
B11	0.0809
B12	0.21
B13	0.12
B14	-0.0233
B15	0.245
B16	0.164
B17	0.233
B18	0.326
B19	-0.259
